{
  "source": "the supplement of paper PMC8728848",
  "binders": {"B1": {"name": "PX9961V-pdi-562-26-562 (Parabacteroides distasonis) (protein)", "chain": "EIFSEITTDNYYQNSNNIYAALVNNYAKAFSTGWSDARYFLQEVTADQLMIPTRGKHGYNGGEYVRLHEHKWTVEENFVYNGWAAPFQGIALCNNTLSDFENLDFSTFKLTEETKNEYIAELRALRVWNYMFLIDFFRHVPIVTDIEEVKAQSTPLEVFNFMESELLAILPDLPKNRGVSRFDQAGVASILVRLYLNAEKWIGISKYDECEQMAQAILDGKYGEYSIDPDYRGPFRSGINGYRSKENIMEFAIKKNYFEASWLYNMWMHYQDRYSLDNDWQGWNGGNLAPSRDLYGNLYQDKLGMPFEKFPDGDIRKKAFRVISNDGDYEGFFLMGTQYKFDYEKGYGFTDEVITGTEEYNGKPLVYVDQVGRFSEGETGLAKGSHVIYGEENTGYRLIKFPWLPQSKDLFQMNSIPEIRLAEIYYSLAECKYRSGDKIGAARLLDVVRKRYYKAEDWSKFSYESNISKLTDDEFVDELGREFIGERHRRIDLIRWNRFSEGAWWDKTPDATNQDVFPIPYRALNANPLLKQTTAGF"}},
  "assay_in_all_cases": "glycan array binding signal (z-score within array); higher = stronger binding",
  "conditions_in_all_cases": "glycan notation: IUPAC condensed, linker removed",
  "key": {"Gal3S6S(b1-4)GlcNAc": {"target": "Gal3S6S(b1-4)GlcNAc", "procedure,_shortened": "(§1)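 The binding signal is a Z-score computed within each array. Data were drawn from 3228 arrays in the Consortium for Functional Glycomics database, restricted to those with a known protein sequence. Scores were averaged over arrays of the same protein sequence at different concentrations or buffers, and over linkers, and negative values can be taken as non-binding.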"}, "Gal3S6S(b1-4)GlcNAc6S": {"target": "Gal3S6S(b1-4)GlcNAc6S", "procedure,_shortened": "as §1"}, "Gal4S(b1-4)GlcNAc": {"target": "Gal4S(b1-4)GlcNAc", "procedure,_shortened": "as §1"}, "Gal4S6S(b1-4)GlcNAc": {"target": "Gal4S6S(b1-4)GlcNAc", "procedure,_shortened": "as §1"}, "Gal6P(b1-4)GlcNAc": {"target": "Gal6P(b1-4)GlcNAc", "procedure,_shortened": "as §1"}, "Gal6S(b1-3)GlcNAc": {"target": "Gal6S(b1-3)GlcNAc", "procedure,_shortened": "as §1"}, "Gal6S(b1-3)GlcNAc6S": {"target": "Gal6S(b1-3)GlcNAc6S", "procedure,_shortened": "as §1"}, "Gal6S(b1-4)Glc": {"target": "Gal6S(b1-4)Glc", "procedure,_shortened": "as §1"}, "Gal6S(b1-4)Glc6S": {"target": "Gal6S(b1-4)Glc6S", "procedure,_shortened": "as §1"}, "Gal6S(b1-4)GlcNAc": {"target": "Gal6S(b1-4)GlcNAc", "procedure,_shortened": "as §1"}, "Gal6S(b1-4)GlcNAc6S": {"target": "Gal6S(b1-4)GlcNAc6S", "procedure,_shortened": "as §1"}, "GalNAc(a1-3)Gal": {"target": "GalNAc(a1-3)Gal", "procedure,_shortened": "as §1"}, "GalNAc(a1-3)GalNAc": {"target": "GalNAc(a1-3)GalNAc", "procedure,_shortened": "as §1"}, "[1]": {"target": "GalNAc(a1-3)GalNAc(b1-3)Gal(a1-4)Gal(b1-4)Glc", "procedure,_shortened": "as §1"}, "[2]": {"target": "GalNAc(a1-3)GalNAc(b1-3)Gal(a1-4)Gal(b1-4)GlcNAc", "procedure,_shortened": "as §1"}, "GalNAc(b1-3)Gal": {"target": "GalNAc(b1-3)Gal", "procedure,_shortened": "as §1"}, "[3]": {"target": "GalNAc(b1-3)Gal(a1-4)Gal(b1-4)GlcNAc", "procedure,_shortened": "as §1"}, "[4]": {"target": "GalNAc(b1-3)Gal(a1-4)Gal(b1-4)GlcNAc(b1-3)Gal(b1-4)Glc", "procedure,_shortened": "as §1"}, "[5]": {"target": "GalNAc(b1-3)Gal(a1-6)Gal(b1-4)Glc", "procedure,_shortened": "as §1"}, "GalNAc(b1-3)GalNAc": {"target": "GalNAc(b1-3)GalNAc", "procedure,_shortened": "as §1"}, "GalNAc(b1-3)GlcNAc": {"target": "GalNAc(b1-3)GlcNAc", "procedure,_shortened": "as §1"}, "GalNAc(b1-4)Gal(b1-4)Glc": {"target": "GalNAc(b1-4)Gal(b1-4)Glc", "procedure,_shortened": "as §1"}, "GalNAc(b1-4)GlcNAc": {"target": "GalNAc(b1-4)GlcNAc", "procedure,_shortened": "as §1"}, "[6]": {"target": "GalNAc(b1-4)GlcNAc(b1-2)Man", "procedure,_shortened": "as §1"}, "[7]": {"target": "GalNAc(b1-4)GlcNAc(b1-2)Man(a1-3)[GalNAc(b1-4)GlcNAc(b1-2)Man(a1-6)]Man(b1-4)GlcNAc(b1-4)GlcNAc", "procedure,_shortened": "as §1"}, "[8]": {"target": "GalNAc(b1-4)GlcNAc(b1-3)GalNAc(b1-4)GlcNAc", "procedure,_shortened": "as §1"}, "GalNAc(b1-4)GlcNAc6S": {"target": "GalNAc(b1-4)GlcNAc6S", "procedure,_shortened": "as §1"}, "GalNAc(b1-6)GalNAc": {"target": "GalNAc(b1-6)GalNAc", "procedure,_shortened": "as §1"}, "GalNAc3S(b1-4)GlcNAc": {"target": "GalNAc3S(b1-4)GlcNAc", "procedure,_shortened": "as §1"}, "GalNAc3S(b1-4)GlcNAc3S": {"target": "GalNAc3S(b1-4)GlcNAc3S", "procedure,_shortened": "as §1"}, "[9]": {"target": "GalNAc3S(b1-4)[Fuc(a1-3)]GlcNAc", "procedure,_shortened": "as §1"}, "GalNAc4S6S(b1-4)GlcNAc": {"target": "GalNAc4S6S(b1-4)GlcNAc", "procedure,_shortened": "as §1"}, "GalNAc6S(b1-4)GlcNAc": {"target": "GalNAc6S(b1-4)GlcNAc", "procedure,_shortened": "as §1"}, "Glc(a1-4)Glc": {"target": "Glc(a1-4)Glc", "procedure,_shortened": "as §1"}, "[10]": {"target": "Glc(a1-4)Glc(a1-4)Glc(a1-4)Glc", "procedure,_shortened": "as §1"}, "Glc(a1-6)Glc(a1-6)Glc": {"target": "Glc(a1-6)Glc(a1-6)Glc", "procedure,_shortened": "as §1"}, "[11]": {"target": "Glc(a1-6)Glc(a1-6)Glc(a1-6)Glc", "procedure,_shortened": "as §1"}, "Glc(b1-4)Glc": {"target": "Glc(b1-4)Glc", "procedure,_shortened": "as §1"}},
  "note": "Some of the results follow.",
  "data": [
    {"binder": "B1", "values": [
      {"measurement": "glycan array binding signal (z-score)", "setting": "Gal3S6S(b1-4)GlcNAc", "value": -0.101},
      {"measurement": "glycan array binding signal (z-score)", "setting": "Gal3S6S(b1-4)GlcNAc6S", "value": -0.287},
      {"measurement": "glycan array binding signal (z-score)", "setting": "Gal4S(b1-4)GlcNAc", "value": -0.475},
      {"measurement": "glycan array binding signal (z-score)", "setting": "Gal4S6S(b1-4)GlcNAc", "value": -0.125},
      {"measurement": "glycan array binding signal (z-score)", "setting": "Gal6P(b1-4)GlcNAc", "value": -0.734},
      {"measurement": "glycan array binding signal (z-score)", "setting": "Gal6S(b1-3)GlcNAc", "value": 0.186},
      {"measurement": "glycan array binding signal (z-score)", "setting": "Gal6S(b1-3)GlcNAc6S", "value": -0.707},
      {"measurement": "glycan array binding signal (z-score)", "setting": "Gal6S(b1-4)Glc", "value": -0.17},
      {"measurement": "glycan array binding signal (z-score)", "setting": "Gal6S(b1-4)Glc6S", "value": -0.292},
      {"measurement": "glycan array binding signal (z-score)", "setting": "Gal6S(b1-4)GlcNAc", "value": -0.043},
      {"measurement": "glycan array binding signal (z-score)", "setting": "Gal6S(b1-4)GlcNAc6S", "value": 0.123},
      {"measurement": "glycan array binding signal (z-score)", "setting": "GalNAc(a1-3)Gal", "value": -0.475},
      {"measurement": "glycan array binding signal (z-score)", "setting": "GalNAc(a1-3)GalNAc", "value": -0.16},
      {"measurement": "glycan array binding signal (z-score)", "setting": "[1]", "value": -0.432},
      {"measurement": "glycan array binding signal (z-score)", "setting": "[2]", "value": -0.239},
      {"measurement": "glycan array binding signal (z-score)", "setting": "GalNAc(b1-3)Gal", "value": -0.142},
      {"measurement": "glycan array binding signal (z-score)", "setting": "[3]", "value": -0.339},
      {"measurement": "glycan array binding signal (z-score)", "setting": "[4]", "value": 0.281},
      {"measurement": "glycan array binding signal (z-score)", "setting": "[5]", "value": -0.107},
      {"measurement": "glycan array binding signal (z-score)", "setting": "GalNAc(b1-3)GalNAc", "value": -0.22},
      {"measurement": "glycan array binding signal (z-score)", "setting": "GalNAc(b1-3)GlcNAc", "value": 0.501},
      {"measurement": "glycan array binding signal (z-score)", "setting": "GalNAc(b1-4)Gal(b1-4)Glc", "value": -0.152},
      {"measurement": "glycan array binding signal (z-score)", "setting": "GalNAc(b1-4)GlcNAc", "value": -0.213},
      {"measurement": "glycan array binding signal (z-score)", "setting": "[6]", "value": -0.576},
      {"measurement": "glycan array binding signal (z-score)", "setting": "[7]", "value": 0.196},
      {"measurement": "glycan array binding signal (z-score)", "setting": "[8]", "value": 0.115},
      {"measurement": "glycan array binding signal (z-score)", "setting": "GalNAc(b1-4)GlcNAc6S", "value": 1.09},
      {"measurement": "glycan array binding signal (z-score)", "setting": "GalNAc(b1-6)GalNAc", "value": -0.649},
      {"measurement": "glycan array binding signal (z-score)", "setting": "GalNAc3S(b1-4)GlcNAc", "value": -0.625},
      {"measurement": "glycan array binding signal (z-score)", "setting": "GalNAc3S(b1-4)GlcNAc3S", "value": -0.598},
      {"measurement": "glycan array binding signal (z-score)", "setting": "[9]", "value": -0.475},
      {"measurement": "glycan array binding signal (z-score)", "setting": "GalNAc4S6S(b1-4)GlcNAc", "value": -0.477},
      {"measurement": "glycan array binding signal (z-score)", "setting": "GalNAc6S(b1-4)GlcNAc", "value": 0.025},
      {"measurement": "glycan array binding signal (z-score)", "setting": "Glc(a1-4)Glc", "value": -0.413},
      {"measurement": "glycan array binding signal (z-score)", "setting": "[10]", "value": -0.28},
      {"measurement": "glycan array binding signal (z-score)", "setting": "Glc(a1-6)Glc(a1-6)Glc", "value": -0.458},
      {"measurement": "glycan array binding signal (z-score)", "setting": "[11]", "value": 0.166},
      {"measurement": "glycan array binding signal (z-score)", "setting": "Glc(b1-4)Glc", "value": -0.298}
    ]}
  ]
}
